In all, about 410,000 compounds went through this assay and about 5,000 (1.2%) were called active. The inconclusive results got no clear call from the source; some entries with a clear call stand among them for comparison. Calls come from the whole dose curve; as a rule, active = well fitted inhibition curve with a large enough effect; inconclusive = small, poorly fitted or top-dose-only effect; inactive = no such curve, though single readings can be large or run the other way. A potency beside an inconclusive call is a rough fit, not a confirmed value.
Experiment: qHTS for Inhibitors of TGF-b; note: nearly all actives have a fitted effect of over 65% in size
Settings: HepG2 CAGA-GFP TGF-b/SMAD3 reporter, GFP fluorescence, 18 h, TGF-beta stimulated, 500 pg/mL final; series mostly up to 46.1 µM
Method in brief: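 HEPG2 CAGA-GFP reporter cells (1000/well, DMEM with 1% FBS) received compounds, then recombinant TGF-beta at 500 pg/mL final for 18 hours at 37 degrees C. Per-cell GFP summed per well was normalised to unstimulated and stimulated DMSO controls before curve fitting.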
For `O=C1Nc2cc(C(=O)NCCN3CCCCCC3)ccc2S/C1=C\c1ccccc1`, the Potency was inconclusive: 25.1 µM [inhibitor, single point].
For `Cc1cccc(C)c1NC(=O)NNC(=O)c1cc(C(C)(C)C)nn1Cc1ccccc1`, the Potency was inconclusive: 1.58 µM [inhibitor, partial curve, poor fit].
With `CCOC(=O)c1c(NC(=S)N2CCOCC2)sc2c1CCN(C(=O)OCC)C2` the Potency was inconclusive: 35.5 µM [inhibitor, single point].
For `COc1cc2c(cc1NC(=O)C(Cl)Cl)-c1ccc(NC(=O)C(Cl)Cl)cc1C2`, the Potency was active: 4.47 µM.
With `O=C(c1ccc(Br)cc1)N1CCC(c2nc3ccccc3s2)CC1` the Potency was inconclusive: 11.2 µM [inhibitor, partial curve, poor fit].
In the case of `CCOC(=O)N1CCN(C2=C(NS(=O)(=O)c3ccc(C)cc3)C(=O)c3ccccc3C2=O)CC1`, the Potency is reported as active: 22.4 µM.
In the case of `COc1cccc(CNC(=O)COC(=O)c2ccc(S(C)(=O)=O)c([N+](=O)[O-])c2)c1`, the Potency is reported as inconclusive: 3.55 µM [inhibitor, single point].
With `Cc1ccccc1NC(=O)Cc1nc(COC(=O)c2cc([N+](=O)[O-])ccc2NCCO)cs1` the Potency was inconclusive: 17.8 µM [inhibitor, single point].
With `COc1ccc(CCNc2nc(-c3ccccc3OC)cc(C(F)(F)F)n2)cc1OC` the Potency was “inactive”.
With `CCN1CCN(C(=O)c2cc(S(=O)(=O)N3CCCCC3)ccc2Cl)CC1` the Potency was inconclusive: 22.4 µM [inhibitor, single point].
With `COc1ccc(N2CCN(C(=O)C(=O)c3cn(CC(=O)N4CCCCCC4)c4ccccc34)CC2)cc1` the Potency was inconclusive: 35.5 µM [inhibitor, partial curve, poor fit].
With `CCOC(=O)c1c(N)sc2c(OCC)c(Br)ccc12` the Potency was inconclusive: 20 µM [inhibitor, partial curve, poor fit].
In the case of `O=C(NC1CCCc2c1cnn2-c1ccccc1F)c1ccncc1` (centres undefined), the Potency is reported as “inactive”.
In the case of `O=C(CCSc1ccccc1)OCn1nnc2ccccc2c1=O`, the Potency is reported as active: 3.98 µM.
In the case of `CN(CC(=O)Nc1cccc(S(=O)(=O)N2CCCCC2)c1)Cc1ccc(F)cc1`, the Potency is reported as “inactive”.
In the case of `CC(OC(=O)c1ccc(O)cc1)C(=O)Nc1ccc(Oc2ccccc2)cc1` (centres undefined), the Potency is reported as inconclusive: 25.1 µM [inhibitor, single point].
In the case of `COc1ccc(OC)c(S(=O)(=O)N2CCC(NC(=O)c3ccccc3)CC2)c1`, the Potency is reported as “inactive”.
With `O=C(CCN1C(=O)/C(=C\c2ccc(F)cc2)SC1=S)Nc1ccc(O)cc1` the Potency was “inactive”.
With `CCCCn1c(N)c(N(CCOC)C(=O)c2c(C)noc2C)c(=O)[nH]c1=O` the Potency was “inactive”.
Potency is the fitted concentration of half-maximal effect; tags give direction and shape of the fitted curve.
